{
  "source": "PubChem BioAssay AID624417",
  "about": "(National Center for Advancing Translational Sciences (NCATS), 2012)",
  "note": "Screen size: about 410,000 compounds; about 6,400 (1.6%) were called active. The inconclusive results got no clear call from the source; some entries with a clear call stand among them for comparison. Calls come from the whole dose curve; as a rule, active = well fitted inhibition curve with a large enough effect; inconclusive = small, poorly fitted or top-dose-only effect; inactive = no such curve, though single readings can be large or run the other way. Potencies of inconclusive entries are left out as doubtful fits. Potency is the fitted concentration of half-maximal effect; tags give direction and shape of the fitted curve.",
  "data": [
    {"biological_target": "Glucagon-like peptide 1 receptor (Homo sapiens) (UniProt P43220)", "sequence (P43220 whole entry, looked up)": "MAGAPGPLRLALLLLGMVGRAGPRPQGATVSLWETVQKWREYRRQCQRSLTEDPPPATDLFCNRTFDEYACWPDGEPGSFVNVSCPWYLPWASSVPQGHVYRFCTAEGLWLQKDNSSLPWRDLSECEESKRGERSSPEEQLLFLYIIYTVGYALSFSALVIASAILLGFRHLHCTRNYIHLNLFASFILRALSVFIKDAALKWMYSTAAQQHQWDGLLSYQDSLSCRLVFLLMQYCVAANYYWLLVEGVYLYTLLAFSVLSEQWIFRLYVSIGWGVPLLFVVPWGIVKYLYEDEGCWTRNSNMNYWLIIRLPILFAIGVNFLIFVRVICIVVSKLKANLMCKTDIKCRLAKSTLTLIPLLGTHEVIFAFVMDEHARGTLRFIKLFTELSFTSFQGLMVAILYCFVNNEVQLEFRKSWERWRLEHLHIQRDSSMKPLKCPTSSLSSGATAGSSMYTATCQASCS", "test": "qHTS of GLP-1 Receptor Inverse Agonists (Inhibition Mode); note: nearly all actives have a fitted effect of over 55% in size", "conditions": "HEK293 GLP-1R CRE-luciferase, luminescence, 24 h, GLP-1R form is constitutively active; series mostly up to 38.3 µM", "summary_of_the_method": "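GLP-1R inverse agonism mode: basal reporter luminescence in engineered HEK293 cells measured after one day of compound exposure at 37 deg C, with a 12 min room-temperature detection step.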", "values": [
      {"smiles": "O=[N+]([O-])c1ccc(NN=Cc2cccc(O)c2)nc1", "Potency": "inconclusive [inhibitor, single point]"},
      {"smiles": "COc1ccccc1C1CCN(Cc2ccc(Cl)c(Cl)c2)CC1", "Potency": "inactive"},
      {"smiles": "CC1CCCN(C(=O)COC(=O)c2n[nH]c3ccccc23)C1", "note": "(stereo unspecified)", "Potency": "inactive"},
      {"smiles": "Cc1ccc(Cl)cc1N1CCN(C(=O)c2ccc(NC(=O)c3nsc4ccccc34)cc2)CC1", "Potency": "inconclusive [inhibitor, single point]"},
      {"smiles": "Cc1cc(C(=O)CSc2nnc(N)s2)c(C)n1Cc1cccs1", "Potency": "inconclusive [inhibitor, partial curve, poor fit]"},
      {"smiles": "CCN(c1cccc(C)c1)S(=O)(=O)c1ccc2c(c1)CCN2C(C)=O", "Potency": "inconclusive [inhibitor, partial curve, poor fit]"},
      {"smiles": "COC(=O)c1sccc1S(=O)(=O)N1CCN(c2cc(Cl)ccc2C)CC1", "Potency": "inconclusive [inhibitor, single point]"},
      {"smiles": "COC(=O)C(Cc1c[nH]c2ccccc12)NC(=O)COc1cccc(C)c1", "note": "(stereo unspecified)", "Potency": "inactive"},
      {"smiles": "Cc1ccc(-c2c3c(nc4sc(C(N)=O)c(N)c24)CCC3)cc1", "Potency": "inconclusive [inhibitor, partial curve, poor fit]"},
      {"smiles": "CCOc1ccc(NC(=O)C2CC(=O)NC(=Nc3ccc(Cl)c(Cl)c3)S2)cc1", "note": "(stereo unspecified)", "Potency": "inactive"},
      {"smiles": "CCOC(=O)c1ccc(NC(=O)C2CCCN(c3ncnc4onc(-c5ccc(F)cc5)c34)C2)cc1", "note": "(stereo unspecified)", "Potency": "inconclusive [inhibitor, single point]"},
      {"smiles": "CCOC(=O)C1(N(CC)CC)Sc2cc(C)ccc2NC1=O", "note": "(stereo unspecified)", "Potency": "active: 6.31 µM"},
      {"smiles": "COc1cccc(CNC(=O)c2sc3nc(C)cc(C)c3c2-n2cccc2)c1OC", "Potency": "inconclusive [inhibitor, partial curve, poor fit]"},
      {"smiles": "CC1C(=O)C(C)C(c2cccc(Br)c2)NC1c1cccc(Br)c1", "note": "(stereo unspecified)", "Potency": "inconclusive [inhibitor, single point]"},
      {"smiles": "CCc1ccc(-c2cc3c(=O)n(CC(=O)N4CCCC4)nc(C)n3n2)cc1", "Potency": "inactive"},
      {"smiles": "Cc1ccc(C(=O)c2coc3ccc(O)c(CN4CCN(C)CC4)c23)cc1", "Potency": "inconclusive [inhibitor, partial curve, poor fit]"},
      {"smiles": "Cc1ccc(S(=O)(=O)N2CCC(C(=O)OCC(=O)N3CCCCC3C)CC2)cc1C", "note": "(stereo unspecified)", "Potency": "inconclusive [inhibitor, single point]"},
      {"smiles": "Cc1ccc(OCC(=O)Nc2cccc(-c3nc4ccccc4s3)c2)cc1", "Potency": "inactive"},
      {"smiles": "O=C(Nc1cccc(S(=O)(=O)N2CCCCC2)c1)c1ccccc1NS(=O)(=O)c1ccc(F)cc1", "Potency": "inconclusive [inhibitor, partial curve]"},
      {"smiles": "O=C(NCCN1CCN(Cc2ccccc2)CC1)c1ccc(CS(=O)(=O)c2ccc(Br)cc2)o1", "Potency": "inconclusive [inhibitor, single point]"},
      {"smiles": "O=C(COC(=O)/C=C/c1ccccc1Cl)NC(=O)NCc1ccccc1", "Potency": "inactive"},
      {"smiles": "CCCCCCN1C[C@H](O)[C@@H](n2cc(COC(=O)c3ccccc3)nn2)C[C@@H]1c1ccc(C)cc1", "Potency": "inconclusive [inhibitor, single point]"},
      {"smiles": "CC(C)N(Cc1ccccc1)C(=O)COC(=O)c1ccc(O)cc1", "Potency": "inconclusive [inhibitor, single point]"},
      {"smiles": "Clc1cccc(N2CCN(c3nc4ccccc4n4nnnc34)CC2)c1", "Potency": "inactive"},
      {"smiles": "CCOC(=O)C1(C)/C(=N/Nc2cccc(Cl)c2)C(=O)C(=O)N1c1ccccc1", "note": "(stereo unspecified)", "Potency": "inconclusive [inhibitor, single point]"},
      {"smiles": "O=C(O)c1ccc(N/N=C/c2cc3cc4c(cc3nc2Cl)OCCO4)cc1", "Potency": "inconclusive [inhibitor, partial curve, poor fit]"},
      {"smiles": "O=C(N/N=C/c1ccco1)c1cccc(N2Cc3ccccc3C2)c1", "Potency": "inactive"},
      {"smiles": "COc1ccc(-c2ccc3c(c2)S(=O)(=O)c2cccc(C(=O)N4CCN(c5ccc(Cl)cn5)CC4)c2C3=O)cc1OC", "Potency": "inconclusive [inhibitor, full curve, poor fit]"},
      {"smiles": "C=CCNC(=O)c1ccccc1NC(=O)C1CCN(S(=O)(=O)c2ccc(SC)cc2)CC1", "Potency": "inconclusive [inhibitor, single point]"},
      {"smiles": "Cc1cccc(C)c1NC(=O)C(c1ccc(C#N)cc1)n1c(=O)c(-c2cc3ccccc3[nH]2)nc2ccccc21", "note": "(stereo unspecified)", "Potency": "inconclusive [inhibitor, partial curve]"},
      {"smiles": "COc1ccc(N2CCN(c3nc(NC(C)(C)C)nc(N4CCCCC4)n3)CC2)cc1", "Potency": "inconclusive [inhibitor, partial curve, poor fit]"},
      {"smiles": "Cc1ccc(S(=O)(=O)N2CCN(C(=O)CN3C(=O)NC(C)(c4ccc5ccccc5c4)C3=O)CC2)cc1", "note": "(stereo unspecified)", "Potency": "inconclusive [inhibitor, single point]"},
      {"smiles": "Cc1cccc(CN2C(=O)N(c3ccc(C(C)C)cc3)S(=O)(=O)c3ccccc32)c1", "Potency": "inconclusive [inhibitor, partial curve, poor fit]"},
      {"smiles": "COc1cc2c(c(OC)c1OC)-c1ccc(N(C)CC(OC)OC)c(=O)cc1[C@@H](NC(C)=O)CC2", "Potency": "inconclusive [inhibitor, full curve]"},
      {"smiles": "O=C(CSc1nnc(CNc2ccc(F)cc2)o1)N1c2ccccc2Sc2ccccc21", "Potency": "inactive"},
      {"smiles": "CCn1c(Cc2cccs2)nnc1SCC(=O)c1ccc(C)cc1", "Potency": "inconclusive [inhibitor, single point]"},
      {"smiles": "O=C(COc1ccccc1)N1CCN(c2nnc(-c3ccccc3)c3ccccc23)CC1", "Potency": "inconclusive [inhibitor, full curve]"},
      {"smiles": "CCN(CC(=O)Nc1ccc(OC)cc1)C(=O)c1ccc2ccccc2c1", "Potency": "inconclusive [inhibitor, single point]"},
      {"smiles": "Cc1cccc(C)c1OCCCCCNCCO", "Potency": "inconclusive [inhibitor, single point]"},
      {"smiles": "CC(=O)c1cccc(NC(=S)NC(=O)c2cncc(Br)c2)c1", "Potency": "inactive"},
      {"smiles": "CC(C)(C)Cc1c(C2CCCCC2)nc2ccc(Cl)cn12", "Potency": "inconclusive [inhibitor, partial curve, poor fit]"}
    ]}
  ]
}
